# Results as given in PubChem BioAssay AID1508642 (National Center for Advancing Translational Sciences (NCATS), 2021).
# Out of some 43,000 compounds screened, about 200 (0.47%) were called active. Another 12% or so got no clear call; they are omitted. The call rests on the fitted dose curve; in most records, active means well fitted cell-killing curve with a large enough effect; inconclusive means small, poorly fitted or top-dose-only effect, or effect the other way; inactive means flat fitted curve, though single readings scatter. The list shows a part of the results.
# Assay: Cell viability qHTS assay in S16 Pmp22-F2sN cells; further: nearly all actives have a fitted effect of over 65% in size
# Conditions: S16 Pmp22-F2sN Schwann cells viability, CellTiter-Glo, 24 h; series mostly up to 57.5 µM; activity change, negative = cytotoxicity: at the top concentration
# Method in brief: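 S16 Pmp22-F2sN Schwann cells (500-1,000/well) in phenol-red-free DMEM with 10% FBS received 23 nL compound by pin tool for 24 h at 37 °C. Viability was then read as CellTiter-Glo luminescence after 15 min at room temperature.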
# On the % scale 0 is the no-effect control and ±100 the full control effect.
row,Structure (SMILES),"activity change, negative = cytotoxicity"
1,COCCNC(=O)CN1C(=O)COc2ccc(S(=O)(=O)N3CCCC3)cc21,inactive: 6.25%
2,Cc1nnc(SCC(=O)Nc2ccc(N(C)C)cc2)[nH]c1=O,inactive: 1.63%
3,CCOC(=O)N1CCc2c(sc3c2C(=O)NC(c2ccc(C(=O)OC)cc2)N3)C1 (stereo unspecified),inactive: -4.97%
4,CCc1ccc(NC(=O)Cn2c(=O)n(CCCC(=O)NCCc3ccc(OC)c(OC)c3)c(=O)c3ccccc32)cc1,inactive: 12.8%
5,COc1ccccc1CNC(=O)CCCCn1c(=O)c2ccccc2n(CC(=O)Nc2cccc(Cl)c2)c1=O,inactive: 29.5%
6,COC(=O)c1cc2oc3ccccc3c2n1Cc1ccccc1Cl,inactive: 14.7%
7,Cc1cccc(NC(=O)N2CCN3CCCCC3C2)c1C (stereo unspecified),inactive: -0.297%
8,COc1cc(NC(=O)CCS(=O)(=O)c2ccc3c(c2)n(C)c(=O)c(=O)n3C)cc(OC)c1,inactive: -3.61%
9,Cc1cccc(C)c1Nc1c(-c2ccsc2)nc2cccc(C)n12,inactive: 3.06%
10,COc1ccccc1N1CCN(c2csc3ccccc3c2=O)CC1,inactive: -0.584%
11,COc1cccc(NC(=O)Cn2c(-c3nonc3N)nc3ccccc32)c1,inactive: -9.26%
12,CCc1ccc(NC(=O)C2CCCN(c3nnc(C)c4c(C)n(-c5ccccc5)nc34)C2)cc1 (stereo unspecified),inactive: 4.93%
13,COc1ccc(CNC(=O)C(=O)Nc2cccc(C)c2C)cc1,inactive: -2.86%
14,COc1ccc2oc(-c3ccc(NC(=O)c4ccc(Cl)cc4Cl)cc3)nc2c1,inactive: 7.16%
15,O=c1c(-c2cc(-c3ccccc3)nc3c2COc2ccccc2-3)coc2ccc(Cl)cc12,inactive: 16.3%
16,CC(C)NC(=O)CN1C(=O)c2cccnc2Sc2ccccc21,inactive: 6.52%
17,Cc1ccc(CCNC(=O)CCS(=O)(=O)c2cc3c(cc2Cl)NC(=O)CO3)cc1,inactive: -2.21%
18,O=C(OCc1cc(=O)n2nc(C3CC3)sc2n1)c1ccccc1Cl,inactive: 31.7%
19,COc1ccc(CNC(=O)C2=CC(c3cccc(OC)c3)=NS(=O)(=O)N2C)cc1,inactive: 1.05%
20,CC(=O)c1cccc(NC(=O)c2cc(C)nc3c2c(C)nn3-c2cccc(Cl)c2C)c1,inactive: -1.77%
21,COc1cccc(-c2nn3c(=O)cc(CN4CCN(C(=O)/C=C/c5ccccc5)CC4)nc3s2)c1,inactive: -7.32%

row,Structure (SMILES),"activity change, negative = cytotoxicity"
1,COc1ccc(NC(=O)Cn2nc(C(F)(F)F)c3c2CCCC3)cc1OC,inactive: 15%
2,CCOc1ccccc1NC(=O)C1=C(C)Nc2ncnn2C1c1cccs1 (stereo unspecified),inactive: 3.64%
3,Cc1cccc(N2CCN(C(=O)c3ccc4c(Cl)c5c(nc4c3)CCCC5)CC2)c1C,inactive: 4.95%
4,COc1ccc(NC(=O)c2csnn2)cc1,inactive: 1.33%
5,Cc1ccc(NC(=O)Cn2c(=O)n(Cc3ccc(C(=O)NCc4ccc5c(c4)OCO5)cc3)c(=O)c3ccccc32)cc1,inactive: 13.3%
6,CCOc1ccc(CNC(=O)CCS(=O)(=O)c2ccc3c(c2)oc(=O)n3C)cc1,inactive: -16.6%
7,COC(=O)c1c(-c2ccc(Cl)cc2)noc1N1CCN(c2ccc(F)cc2)CC1,inactive: 7.99%
8,Cc1ccc(-c2nc(-c3cc4cccc(OCc5ccccc5F)c4oc3=O)no2)cc1,inactive: 10.6%
9,CCCOc1ccc(C(=O)Nc2ccc3oc(-c4ccc(N(C)C)cc4)nc3c2)cc1,inactive: 12%
10,Cc1c(Cl)cccc1NC(=O)Cn1nnc(-c2nc(-c3ccccc3)no2)c1N,inactive: 3.74%
11,Cc1cccc(C)c1NC(=O)CSc1nc2ccccc2c2nc(CCc3c(C)n[nH]c3C)nn12,inactive: 5.58%
12,CCCOc1ccc(OC(=O)c2cn(-c3ccc(OC)cc3)c(=O)c3ccccc23)cc1,inactive: -0.872%
13,CCCCOC(=O)c1ccc(NC(=O)c2csnn2)cc1,inactive: 5.48%
14,CC1=C(C(=O)Nc2ccccc2)C(c2ccc[nH]2)n2ncnc2N1 (stereo unspecified),inactive: 0.11%
15,Cc1ccccc1OCC(=O)Nc1ccc2nc(SCC(N)=O)sc2c1,inactive: 0.968%
16,COc1ccccc1N1CCN(Cc2nnc(-c3ccccc3C)o2)CC1,inactive: 15.6%
17,O=S(=O)(Nc1ccc(C(F)(F)F)cc1)c1ccc2c(c1)OCCO2,inactive: -7.2%
18,CCOC(=O)c1cccc(NC(=O)c2ccc3nc(CCc4ccccc4)oc3c2)c1,inactive: -9.94%
19,O=C(NCCCc1nc2ccccc2n1Cc1cccc(Cl)c1)C1CCCCC1,inactive: 5.75%
20,O=C(c1ccc2c(c1)N(Cc1ccc(Cl)cc1)C(=O)c1ccccc1S2=O)N1CCC(Cc2ccccc2)CC1 (stereo unspecified),inactive: -4.5%
21,COCCCn1c(=O)c2sccc2n2c(CCCC(=O)Nc3cccc(C(F)(F)F)c3)nnc12,inactive: 1.01%

row,Structure (SMILES),"activity change, negative = cytotoxicity"
1,Cc1nn(-c2ccc(Cl)cc2)c2nc(-c3cccnc3)cc(C(F)(F)F)c12,inactive: 11.5%
2,COc1ccc(NC(=O)C2CCN(S(=O)(=O)c3c(C)noc3/C=C/c3cccs3)CC2)cc1,inactive: 1.6%
3,CC(C)N(Cc1ccccc1)C(=O)Cn1ncc2c3ccccc3n(Cc3ccccc3)c2c1=O,inactive: -23.4%
4,COc1ccc(CCNC(=O)c2cn(C)c3ccc(S(=O)(=O)N4CCOCC4)cc3c2=O)cc1OC,inactive: -12.7%
5,CCOC(=O)c1ccc(NC(=O)CCCn2c(=O)c3cccn3c3cccnc32)cc1,inactive: 18.9%
6,CN(Cc1ccccc1)C(=O)CCS(=O)(=O)c1ccc2c(c1)oc(=O)n2C,inactive: -33%
7,COC(=O)c1ccccc1NC(=O)c1ccc(-c2nc(CSc3ccc(C)cc3)c(C)o2)cc1,inactive: -1.26%
8,O=C(CSc1ccccc1)NCc1ccc2c(c1)CCN2C(=O)c1ccccc1,inactive: -4.32%
9,COc1cccc(-c2noc(CCCC(=O)NCc3ccco3)n2)c1,inactive: 4.92%
10,Cc1cccc(C)c1OCC(=O)NC(Cc1c[nH]c2ccccc12)C(=O)O (stereo unspecified),inactive: 13.5%
11,Cc1ccc(S(=O)(=O)NCc2nc3nc(C)cc(C)n3n2)cc1,inactive: -4.67%
12,Cc1ccc(C)c(CN2CCCN(CC(=O)Nc3ccc(C)c(C)c3)S2(=O)=O)c1,inactive: 8.44%
13,Cc1ccc(-n2c(=O)c3c4c(sc3n(CC(=O)Nc3cccc(Cl)c3)c2=O)CCCCC4)cc1C,inactive: 17.8%
14,COc1cc(Cl)c(C)cc1NC(=O)CCc1nc2cccnc2n1Cc1cccs1,inactive: -28.4%
15,CCN(CC)CCCNC(=O)c1ccc(Cn2c(=O)[nH]c3cc(OC)c(OC)cc3c2=O)cc1,inactive: 2.01%
16,CCOC(=O)c1c(S(=O)(=O)N2CCC(C(=O)N3CCN(c4ccccc4F)CC3)CC2)c(C)n(C)c1C,inactive: -2.33%
17,Cn1cc(C(=O)NCc2ccccc2Cl)c(=O)c2cc(S(=O)(=O)N3CCCCCC3)ccc21,inactive: 2.7%
18,CN(CC(=O)NCc1ccc(F)cc1)S(=O)(=O)c1ccc2[nH]c3c(c2c1)CCCC3,inactive: -29.7%
19,COc1ccc(CNc2nc3c(-c4cccc(F)c4)nnn3c3ccccc23)cc1,inactive: 15.3%
